The text below walks through data of the supplement of paper PMC11417369.

The list shows a part of the results.

In this assay the test system is PfAP2-HC AP2 domain (GST-tagged). The experiment in a line: gcPBM binding intensity (ln(normalized median fluorescence intensity)); higher = stronger DNA binding. Summed up: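 An Agilent 4 × 180k array carrying primer-extended double-stranded 36-bp intergenic genomic probes and negative controls received GST-tagged P. falciparum DNA-binding domains expressed in E. coli, about 25 μg on average, for 1 h. The binding buffer contained 1× PBS, 1% milk, 0.2 mg/ml BSA, 0.5% salmon testes DNA and 0.03% Triton X-100. Binding intensity is the top Masliner-normalised natural-log median intensity across replicate spots of either probe orientation, read after Alexa488 anti-GST antibody staining and a 488 nm scan.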
On to “TTTAAATAAAATATTACACACTTAGAAAAATATATA [CACACA_site3663]”, for which the “gcPBM binding intensity (ln)” value worked out at 9.58.
The figure for “TTTCGTAAAATGAAATGTACTCAAAAGTAAATATAA [XGTACX_site214]” is 9.48; for “ACATACATACACCCACGTACGTACCGAAACACCACC [XGTACX_site1212]” it is 9.91.
For “GATATAATGTGTTTGGTATTCTTGATAGATAGTTTT [CACACA_negctrl_site1711]” the value was 9.81; for “ATGATGTCTTTATATTGTACATATATGAAGACGTTA [XGTACX_site7751]”, 9.46.
Turning to “TTAACCTTTTGATATTGTACCCATAATCTAATACAA [XGTACX_site769]”, the “gcPBM binding intensity (ln)” value came to 9.44.
For “TTTTTTAAAAAAGTTTTCTGTATTTATATATATATA [CACACA_negctrl_site31]” the value was 9.48; for “TCATATGTATAAATTAGTACATATTTAATGGATATA [XGTACX_site3298]”, 9.48.
The figure for “CTATCTACATAAACGTGTACCCACAAATAAATAAAT [XGTACX_site5210]” is 9.6; for “TTATGTCATAAATGCACACATATATATATACATATA [CACACA_site1588]” it is 9.76.
For “AGGCACGTGTTATATACACACATAATCAAATAAACT [CACACA_site7852]”, the “gcPBM binding intensity (ln)” value is 9.79.
“ACATTTTATACGATAAAATGTATAAGATTATGAAGA [TGCATGCA_negctrl_site476]”: the “gcPBM binding intensity (ln)” value was found to be 9.64.
For “AAAATAATAACATTGTGTACATAAAAAGAAAACCTT [XGTACX_site840]” the value was 9.95; for “TATGAATGGTTAAGTACACACATATTAATATATGTA [CACACA_site3490]”, 9.69.
For “AAATGAAAATAAAGCAACAGAAATATAATGTATTAT [GTGCAC_negctrl_site508]” the value was 9.88; for “TTTTTTTACAACATTACACACAAATATTCTGTGTTA [CACACA_site5957]”, 10; for “AGAAAATTAAAAAGAACACACAAATATATATATAAT [CACACA_site5896]”, 10.2.
For “AATCGTGTTCTGAATACACACTAATACAAATTTGTA [CACACA_site6058]” the value was 9.75; for “AACAAAAATAATAATCAAATAAATAAATGAAAACAT [CACACA_negctrl_site456]”, 9.87.
For the sequence “ATATTACAACATTTTATACACACGTGATTATTAATT [CACACA_site2877]”, the “gcPBM binding intensity (ln)” value amounted to 9.87.
In the case of “AACATTTTAAAACAGACACACACCAAAAAAAAAAAA [CACACA_site257]”, the “gcPBM binding intensity (ln)” value worked out at 10.2.
For “CACCCATAAATATACACACGCACAACACAAAATAAA [CACACA_site2903]”, the “gcPBM binding intensity (ln)” value worked out at 10.7.
Consider “ATATATATATATACATGTACAAATGTATAACAAATG [XGTACX_site145]”, for which the “gcPBM binding intensity (ln)” value came to 9.78.
With “TGGTACCTTACTTTTACACACTTTTTTTTTTTTTTT [CACACA_site1557]”, the “gcPBM binding intensity (ln)” value is 9.91.
For “CCATTTTAAATATGCACACAGATGCACTAACACATT [CACACA_site5099]” the value was 10.1; for “AATATATACGCATGCGCACACACAAGTGGGAAATTT [CACACA_site1786]”, 10.2.
The figure for “TTTTGAGTAGCCTATTGTACGAACTTTTTAAATACA [XGTACX_site1224]” is 9.39; for “CATCCTATTACTTGGTGTACTATTTTATATTGAATA [XGTACX_site1050]” it is 9.85.
For “ATAAATTTATCCAAGTGTACAAAGCTAACATTTTTT [XGTACX_site4399]” the value was 9.59.
For the sequence “GTTTATAAAATAAGAAGTACTTTATGAGAACCATAT [XGTACX_site5789]”, the “gcPBM binding intensity (ln)” value was determined as 9.53.
For “ATAAACAAGACGCAACAAAGTAGAAATTAAAAATAA [CACACA_negctrl_site345]”, the “gcPBM binding intensity (ln)” value stood at 10.1.
For “AAAAATGGAATTATCTGTACATATATAGTTTTTAAA [XGTACX_site5580]” the value was 9.59; for “ACATTAAGACACATTGCACACGTGCACCCATAGAAA [CACACA_site8029]”, 9.8; for “ACCTGGACAAAAATAAATAAATAAATAAATAAATGA [GTGCAC_negctrl_site238]”, 9.6.
The figure for “AATTCTTTTTTCAACACACACACACTAGAAAATATA [CACACA_site5681]” is 10.3; for “TAAATACAGAAACACACACACAAATATATACATACA [CACACA_site2880]” it is 10.5; for “TTTATATATTATTAATGTACAAAATTTTTATTGCAT [XGTACX_site3329]” it is 9.43.
On to “CTTTTAATATGTGTAGTGCATTTTTTTTTTTTTTTT [GTGCAC_site9727]”, for which the “gcPBM binding intensity (ln)” value was determined as 9.66.
On to “AAAAAAAAAAAAAACACACACAACACCCATACCTTA [CACACA_site3621]”, for which the “gcPBM binding intensity (ln)” value turned out to be 11.2.
Turning to “GTCCTTCATCATATTTAACACACAGAGAAAAAGCGG [CACACA_site7979]”, the “gcPBM binding intensity (ln)” value is 9.67.
For “GGAATTATATGAAATAAACACACATATGTAATATTA [CACACA_site8586]”, the “gcPBM binding intensity (ln)” value was 9.84.
With TTTTTTTTTTTTTTGGTGCGTTTATATATAAATATA, the “gcPBM binding intensity (ln)” value is 9.47.
Regarding “AAAATCTAATATAATGCACACATAAAAAAAAAATCA [CACACA_site8871]”, the “gcPBM binding intensity (ln)” value came to 10.1.
The figure for “TACATCGACCTATGTACATGCAAATTATTTTTATTT [TGCATGCA_site182]” is 9.83; for “TTGGTAATAATTTGAGGTACACTGTATAAATTTTTT [XGTACX_site909]” it is 9.54; for “ATTTTTTTGTGTTTGGTACACACGTTATAAAAAATA [CACACA_site1345]” it is 9.75.
“TTTTTTTCTTAAAGATGTACTTTTTTAAAATAATCT [XGTACX_site3663]”: the “gcPBM binding intensity (ln)” value amounted to 9.36.
The figure for “AATAATAAATTATGGTGTACGCATTTGTATATATAC [XGTACX_site5417]” is 9.74; for “TAAAAGAAATATACATGTACATAAATATATATATAT [XGTACX_site1276]” it is 9.9; for “GCCCAACCAAAATATACACACAGTTGAATGAATAAA [CACACA_site2597]” it is 9.72.
For “TATATTTGGAAATATTCTCAATTGGTACAAATAAAA [CACACA_negctrl_site1202]” the value was 9.27; for “GATATGTGACGTTTGGTATTTTTGATGTTGGTAGGA [CACACA_negctrl_site1448]”, 9.97.
The figure for “TTTTGGATCATTTGTTGTACATATGCAAAAAAAAAA [XGTACX_site3157]” is 9.45; for “AAAAAAATAAAATTATATAAAATAAATTTTTATAAT [GTGCAC_negctrl_site587]” it is 9.51.
Take GGAAAATACATTCCAGTGCATTAATTTATTCAACGT: the “gcPBM binding intensity (ln)” value worked out at 9.6.
The figure for “TATGATACATAATATACATGCATACACAACATTCAG [TGCATGCA_site487]” is 9.79.
